In the experiment the target is T1, p31comet (Homo sapiens, UniProt Q15013).
T1 chain: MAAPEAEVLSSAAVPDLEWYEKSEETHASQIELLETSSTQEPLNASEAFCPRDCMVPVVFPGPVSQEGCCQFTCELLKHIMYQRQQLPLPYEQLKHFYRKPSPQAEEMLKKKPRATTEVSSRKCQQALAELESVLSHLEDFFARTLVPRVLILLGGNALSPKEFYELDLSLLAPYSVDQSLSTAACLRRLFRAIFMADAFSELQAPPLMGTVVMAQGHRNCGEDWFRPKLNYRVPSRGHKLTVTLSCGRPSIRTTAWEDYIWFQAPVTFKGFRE

For orientation: Kd means the constant that tells how readily two partners part at equilibrium. Read a low Kd as tighter binding.

B1: Mad2 (protein)
chain: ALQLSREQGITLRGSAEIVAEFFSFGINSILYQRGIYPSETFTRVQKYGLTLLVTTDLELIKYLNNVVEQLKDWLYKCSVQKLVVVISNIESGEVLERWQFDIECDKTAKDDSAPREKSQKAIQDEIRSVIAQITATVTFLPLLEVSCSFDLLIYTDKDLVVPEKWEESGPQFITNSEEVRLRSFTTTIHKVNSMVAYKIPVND
Consider B1, for which the affinity, expressed as Kd, was 240 nM.
